From article PMC4336329 (PLoS ONE, 2015)
Out of some 310,000 compounds screened, about 2,200 (0.71%) showed an effect of 50% or more. The effect is printed as a negative number. This is one part of the list.

biological target: human ether-à-go-go-related gene (hERG) potassium channel (human, UniProt Q12809); experiment: primary screen, population patch clamp on CHO cells stably expressing hERG
Sequence (Q12809 whole entry, looked up): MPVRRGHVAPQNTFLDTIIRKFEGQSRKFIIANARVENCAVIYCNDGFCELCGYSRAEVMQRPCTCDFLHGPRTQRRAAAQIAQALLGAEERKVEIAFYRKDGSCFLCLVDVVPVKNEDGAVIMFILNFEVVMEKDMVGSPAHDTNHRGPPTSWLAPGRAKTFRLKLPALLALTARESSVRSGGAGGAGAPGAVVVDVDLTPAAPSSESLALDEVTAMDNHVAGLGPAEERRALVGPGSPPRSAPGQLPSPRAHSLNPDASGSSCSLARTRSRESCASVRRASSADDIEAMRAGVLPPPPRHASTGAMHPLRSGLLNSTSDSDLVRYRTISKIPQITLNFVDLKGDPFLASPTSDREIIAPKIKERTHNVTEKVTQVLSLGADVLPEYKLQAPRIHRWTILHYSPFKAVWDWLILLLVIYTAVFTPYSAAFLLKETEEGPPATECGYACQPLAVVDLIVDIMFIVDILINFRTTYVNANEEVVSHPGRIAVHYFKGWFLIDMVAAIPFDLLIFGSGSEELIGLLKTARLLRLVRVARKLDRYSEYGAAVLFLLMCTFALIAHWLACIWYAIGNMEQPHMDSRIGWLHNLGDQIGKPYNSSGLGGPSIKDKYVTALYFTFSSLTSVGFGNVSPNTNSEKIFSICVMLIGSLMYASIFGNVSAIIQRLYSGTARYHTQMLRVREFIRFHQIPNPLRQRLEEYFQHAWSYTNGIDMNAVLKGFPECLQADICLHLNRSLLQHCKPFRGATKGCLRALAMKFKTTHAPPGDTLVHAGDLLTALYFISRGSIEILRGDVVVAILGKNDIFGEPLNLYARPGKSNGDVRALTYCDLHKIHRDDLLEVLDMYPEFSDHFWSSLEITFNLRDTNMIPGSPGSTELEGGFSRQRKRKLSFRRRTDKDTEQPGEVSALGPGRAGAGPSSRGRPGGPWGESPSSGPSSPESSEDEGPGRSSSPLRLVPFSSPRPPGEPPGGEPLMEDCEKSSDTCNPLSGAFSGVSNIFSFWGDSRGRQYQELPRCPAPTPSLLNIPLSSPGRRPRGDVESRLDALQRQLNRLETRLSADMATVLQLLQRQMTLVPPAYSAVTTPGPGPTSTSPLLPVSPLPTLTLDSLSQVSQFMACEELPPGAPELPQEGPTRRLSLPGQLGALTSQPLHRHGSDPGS

SMILES | hERG current change (%, negative = inhibition) at 1uM
CCNC(=O)CSc1nc(-c2ccccc2)cs1 | 10.7%
CCO[C@@H]1OC(C(N)=O)=C[C@H](c2ccc3c(c2)OCO3)[C@H]1CCCO | 9.07%
CC(=O)c1ccc(N2CCN(C(=S)NCCCN(C)C)CC2)cc1 | 5.89%
Brc1ccccc1CN1CCN(Cc2c[nH]c3ccccc23)CC1.O=C(O)C(=O)O | 13.6%
Cc1cc(C)nc(SCc2nnc(SCc3ccccc3Cl)o2)n1 | 13.9%
CCn1nc(C)c(/C=N/NC(=O)Cn2cncn2)c1C | 15.5%
CCOc1ccc(NC(=O)CC2C(=O)Nc3ccccc3N2C(=O)c2ccccc2)cc1 (stereo not shown) | -7.65%
O=C1C2CCCN2C(c2ccc(F)c(F)c2)N1c1cccc(Cl)c1 (stereo not shown) | -3.19%
O=C(Nc1ccc(S(=O)(=O)NCC2CCCO2)cc1)c1cnccn1 (stereo not shown) | 14.1%
O=C(O)COc1ccccc1/C=C1\SC(=O)N(Cc2ccc(F)cc2)C1=O | -3.1%
O=S(=O)(Nc1ccc2c(c1)OCO2)c1cccc(Br)c1 | 8.92%
CCOC(=O)CN(C(=O)CSc1nnc(-c2ccc(OC)c(OC)c2)o1)c1ccccc1 | 4.75%
COc1ccc(-c2c(-c3ccc(OCC(=O)NN)cc3O)n[nH]c2C(F)(F)F)cc1 | 3.42%
CCOc1ccccc1CNCc1ccc(F)cc1.Cl | 7.9%
Cc1ccc(-c2cn(-c3ccccc3)c(=S)[nH]2)cc1C | 12.8%
CN1CCN(c2nc3c(c(=O)n(C)c(=O)n3C)n2Cc2ccccc2F)CC1 | 4.13%
Cc1ccc(NC(=O)N2CCCCC2)cc1[N+](=O)[O-] | 13.9%
O=C(CSc1nnc2ccc(-c3cccnc3)nn12)Nc1ccc(F)cc1 | -39.3%
COc1ccc(Cc2nnc(N)s2)cc1OC | 4.83%
CCCCn1c(N)c(N(CCC(C)C)C(=O)C2=NN(c3cc(C)ccc3C)C(=O)CC2)c(=O)[nH]c1=O | 8.06%
CN(C(=O)c1ccc(S(=O)(=O)N2CCCC2)cc1)C1CCS(=O)(=O)C1 (stereo not shown) | 10.8%
C#CCOc1ccc2c3c(c(=O)oc2c1)CCCC3 | 15.3%
COc1ccc(NC(=O)CN2CCN(CC#N)CC2)cc1 | -44.9%

SMILES | hERG current change (%, negative = inhibition) at 1uM
Cc1ccc(N/N=C/c2ccc3c(c2)OCCO3)cc1Cl | 3.76%
COc1ccc(N2C(=O)CC(Sc3ncccc3C(=O)O)C2=O)cc1 (stereo not shown) | 11.2%
CN(C(=O)c1ccccc1-c1ncc[nH]1)C1CCCN(Cc2ccccc2F)C1 (stereo not shown) | 10.3%
Cc1cc(C)c(C(=O)COC(=O)c2cccc(S(=O)(=O)NCc3ccccc3)c2)cc1C | 0.192%
Nc1nc(Nc2ccccc2F)nc(NC2CCCCC2)c1[N+](=O)[O-] | 11.8%
CCOC(=O)CC1C(=O)NCCN1C(=O)Nc1ccccc1 (stereo not shown) | 4.87%
CCOC(=O)CC1C(=O)NCCN1C(=O)c1ccc(F)cc1F (stereo not shown) | 0.319%
Cn1c(NC(=O)/C=C/c2ccco2)cc(=O)n(C)c1=O | 11.9%
Cc1nc2cc(NS(=O)(=O)c3c(C)c(C)cc(C)c3C)ccc2s1 | 5.6%
Cc1ccc(Nc2nc(C(=O)NCC3CCCO3)cs2)cc1 (stereo not shown) | 2.78%
c1ccc(CCc2nn3c(C4COc5ccccc5O4)nnc3s2)cc1 (stereo not shown) | 1.42%
Cc1onc(-c2ccccc2)c1C(=O)N/N=C/c1c[nH]c2ccccc12 | 15.2%
COc1ccccc1CNC(=O)CN(c1ccc(C)cc1)S(=O)(=O)c1c(C)nn(C)c1C | -6.7%
CCc1ccc(C(=O)CSc2ncn[nH]2)cc1 | 4.26%
COc1ccc2cc(Br)ccc2c1CC(=O)N(C)C | 6.8%
CCCS(=O)(=O)c1c(S(=O)(=O)CCC)c2c(C(N)=O)cccn2c1C(=O)c1ccc(F)cc1 | 13.4%
COC(CC(=O)NNC(=S)Nc1ccccc1)OC | 2.82%
S=c1nc(C23CC4CC(CC(C4)C2)C3)[nH][nH]1 | 11.6%
CC(C)(C)n1cc(C(=O)c2ccccc2OCCCF)cn1 | 4.39%
COc1ccc(S(=O)(=O)Nc2c(F)cccc2F)cc1 | 5.22%
O=C(NCc1cccnc1)c1ccc(-c2cc3ccccc3oc2=O)cc1 | 12.4%
Cc1cccc(OCC(=O)Nc2ccncc2)c1 | 6.41%
CCOC(=O)c1ccc(NC(=S)N(CCN(C)C)C(C)c2ccncc2)cc1 (stereo not shown) | 5.67%
